# Experimental data reported in PMC9911399, “Two distinct binding modes provide the RNA-binding protein RbFox with extraordinary sequence specificity”.
# Positions count from the first letter of the chain named. The list shows a part of the results.
# T1: RBFOX1 RRM RbFoxmut (Fox-RRM*) (Homo sapiens, UniProt Q9NWB1 109-208, R118D;E147R;N151S;E152T)
# T1 sequence: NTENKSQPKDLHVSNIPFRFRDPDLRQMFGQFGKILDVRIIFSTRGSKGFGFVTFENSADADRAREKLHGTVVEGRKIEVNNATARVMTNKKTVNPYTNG
# B1: AUGGUAC (DNA:RNA)
# RNA: GGGAGACCGGAAUUCAGAUUGUCCAUGGUACUUAAAUCCCGUCGUAGCCACCA
# DNA 1: CAATCTGAATTCCGGTCTCCC
# DNA 2: TGGTGGCTACGACGGGATT
# B2: GACAGCC (DNA:RNA)
# RNA: B1 RNA with A25G, U26A, G27C, G28A, U29G, A30C
# DNA 1: CAATCTGAATTCCGGTCTCCC
# DNA 2: TGGTGGCTACGACGGGATT
# B3: AUUAUGA (DNA:RNA)
# RNA: B1 RNA with G27U, G28A, A30G, C31A
# DNA 1: CAATCTGAATTCCGGTCTCCC
# DNA 2: TGGTGGCTACGACGGGATT
# B4: GGUGUGC (DNA:RNA)
# RNA: B1 RNA with A25G, U26G, G27U, A30G
# DNA 1: CAATCTGAATTCCGGTCTCCC
# DNA 2: TGGTGGCTACGACGGGATT
# B5: GCGCUUU (DNA:RNA)
# RNA: B1 RNA with A25G, U26C, G28C, A30U, C31U
# DNA 1: CAATCTGAATTCCGGTCTCCC
# DNA 2: TGGTGGCTACGACGGGATT
# B6: UCAACAC (DNA:RNA)
# RNA: B1 RNA with A25U, U26C, G27A, G28A, U29C
# DNA 1: CAATCTGAATTCCGGTCTCCC
# DNA 2: TGGTGGCTACGACGGGATT
# B7: UGUUGCG (DNA:RNA)
# RNA: GGGAGACCGGAAUUCAGAUUGUCCUGUUGCGUUAAAUCCCGUCGUAGCCACCA
# DNA 1: CAATCTGAATTCCGGTCTCCC
# DNA 2: TGGTGGCTACGACGGGATT
# B8: UUUUAUC (DNA:RNA)
# RNA: B7 RNA with G26U, G29A, C30U, G31C
# DNA 1: CAATCTGAATTCCGGTCTCCC
# DNA 2: TGGTGGCTACGACGGGATT
# B9: UAAAGGA (DNA:RNA)
# RNA: B7 RNA with G26A, U27A, U28A, C30G, G31A
# DNA 1: CAATCTGAATTCCGGTCTCCC
# DNA 2: TGGTGGCTACGACGGGATT
# B10: UGCAGAU (DNA:RNA)
# RNA: B7 RNA with U27C, U28A, C30A, G31U
# DNA 1: CAATCTGAATTCCGGTCTCCC
# DNA 2: TGGTGGCTACGACGGGATT
# B11: GGCUGAC (DNA:RNA)
# RNA: B7 RNA with U25G, U27C, C30A, G31C
# DNA 1: CAATCTGAATTCCGGTCTCCC
# DNA 2: TGGTGGCTACGACGGGATT
# B12: AUGUUUG (DNA:RNA)
# RNA: B1 RNA with G28U, A30U, C31G
# DNA 1: CAATCTGAATTCCGGTCTCCC
# DNA 2: TGGTGGCTACGACGGGATT
# B13: AAACAUU (DNA:RNA)
# RNA: B1 RNA with U26A, G27A, G28C, U29A, A30U, C31U
# DNA 1: CAATCTGAATTCCGGTCTCCC
# DNA 2: TGGTGGCTACGACGGGATT
# B14: UUCCCCU (DNA:RNA)
# RNA: B7 RNA with G26U, U27C, U28C, G29C, G31U
# DNA 1: CAATCTGAATTCCGGTCTCCC
# DNA 2: TGGTGGCTACGACGGGATT
# B15: CCCCAAU (DNA:RNA)
# RNA: B1 RNA with A25C, U26C, G27C, G28C, U29A, C31U
# DNA 1: CAATCTGAATTCCGGTCTCCC
# DNA 2: TGGTGGCTACGACGGGATT
# B16: GGCACGG (DNA:RNA)
# RNA: B7 RNA with U25G, U27C, U28A, G29C, C30G
# DNA 1: CAATCTGAATTCCGGTCTCCC
# DNA 2: TGGTGGCTACGACGGGATT
# B17: GGUAAUG (DNA:RNA)
# RNA: B7 RNA with U25G, U28A, G29A, C30U
# DNA 1: CAATCTGAATTCCGGTCTCCC
# DNA 2: TGGTGGCTACGACGGGATT
# B18: UCACCAU (DNA:RNA)
# RNA: B1 RNA with A25U, U26C, G27A, G28C, U29C, C31U
# DNA 1: CAATCTGAATTCCGGTCTCCC
# DNA 2: TGGTGGCTACGACGGGATT
# B19: GGGGCAA (DNA:RNA)
# RNA: B1 RNA with A25G, U26G, U29C, C31A
# DNA 1: CAATCTGAATTCCGGTCTCCC
# DNA 2: TGGTGGCTACGACGGGATT
# B20: GUCCCGU (DNA:RNA)
# RNA: B1 RNA with A25G, G27C, G28C, U29C, A30G, C31U
# DNA 1: CAATCTGAATTCCGGTCTCCC
# DNA 2: TGGTGGCTACGACGGGATT
# Biological target: T1, RBFOX1 RRM RbFoxmut (Fox-RRM*)
# Experiment: EMSA; HiTS-Eq, 1 nM pool, 10 min; buffer printed only for the single-RNA assays: 10 mM Tris pH 7.5, 150 mM NaCl, 3.4 mM EDTA, 0.001% NP-40, 30 C
# Conditions: tags: His6 N-terminal (pET28a); label: 5' 32P
# Summary of the method: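 Purified wild-type or mutant RbFox RRM at increasing concentrations was equilibrated with 1 nM of 5′-radiolabelled RNA carrying 7 randomized nucleotides for 10 min in 50 µL. Unbound RNA was separated by 8% native PAGE and sequenced. Relative association constants came from read-count changes of each RNA species compared with the control reaction, normalised to the cognate motif.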
row,Binder,binding signal
1,B1,0.142 KA relative to UGCAUGU
2,B2,0.0467 KA relative to UGCAUGU
3,B3,0.122 KA relative to UGCAUGU
4,B4,0.15 KA relative to UGCAUGU
5,B5,0.0897 KA relative to UGCAUGU
6,B6,0.0639 KA relative to UGCAUGU
7,B7,0.208 KA relative to UGCAUGU
8,B8,0.0874 KA relative to UGCAUGU
9,B9,0.06 KA relative to UGCAUGU
10,B10,0.127 KA relative to UGCAUGU
11,B11,0.113 KA relative to UGCAUGU
12,B12,0.626 KA relative to UGCAUGU
13,B13,0.0578 KA relative to UGCAUGU
14,B14,0.0625 KA relative to UGCAUGU
15,B15,0.0644 KA relative to UGCAUGU
16,B16,0.149 KA relative to UGCAUGU
17,B17,0.321 KA relative to UGCAUGU
18,B18,0.0886 KA relative to UGCAUGU
19,B19,0.0741 KA relative to UGCAUGU
20,B20,0.11 KA relative to UGCAUGU
